Assay results from PubChem BioAssay AID588579 (National Center for Advancing Translational Sciences (NCATS), 2011).
About 2,200 (0.55%) of roughly 400,000 compounds were called active. This list was built around the results that the source calls inconclusive (neither active nor inactive); the mix of calls is not that of the screen. Calls come from the whole dose curve; as a rule, active = well fitted inhibition curve with a large enough effect; inconclusive = small, poorly fitted or top-dose-only effect, or another doubt; inactive = no such curve, though single readings can be large or run the other way. Where the call is inconclusive, the potency comes from a doubtful curve fit.

molecular target: DNA polymerase kappa (Homo sapiens) (UniProt Q9UBT6); test: qHTS for Inhibitors of Polymerase Kappa; conditions: purified Pol kappa, fluorescent DNA synthesis assay, 10 min; series mostly up to 107 µM
Chain of UniProt Q9UBT6 (Q9UBT6 whole entry, looked up): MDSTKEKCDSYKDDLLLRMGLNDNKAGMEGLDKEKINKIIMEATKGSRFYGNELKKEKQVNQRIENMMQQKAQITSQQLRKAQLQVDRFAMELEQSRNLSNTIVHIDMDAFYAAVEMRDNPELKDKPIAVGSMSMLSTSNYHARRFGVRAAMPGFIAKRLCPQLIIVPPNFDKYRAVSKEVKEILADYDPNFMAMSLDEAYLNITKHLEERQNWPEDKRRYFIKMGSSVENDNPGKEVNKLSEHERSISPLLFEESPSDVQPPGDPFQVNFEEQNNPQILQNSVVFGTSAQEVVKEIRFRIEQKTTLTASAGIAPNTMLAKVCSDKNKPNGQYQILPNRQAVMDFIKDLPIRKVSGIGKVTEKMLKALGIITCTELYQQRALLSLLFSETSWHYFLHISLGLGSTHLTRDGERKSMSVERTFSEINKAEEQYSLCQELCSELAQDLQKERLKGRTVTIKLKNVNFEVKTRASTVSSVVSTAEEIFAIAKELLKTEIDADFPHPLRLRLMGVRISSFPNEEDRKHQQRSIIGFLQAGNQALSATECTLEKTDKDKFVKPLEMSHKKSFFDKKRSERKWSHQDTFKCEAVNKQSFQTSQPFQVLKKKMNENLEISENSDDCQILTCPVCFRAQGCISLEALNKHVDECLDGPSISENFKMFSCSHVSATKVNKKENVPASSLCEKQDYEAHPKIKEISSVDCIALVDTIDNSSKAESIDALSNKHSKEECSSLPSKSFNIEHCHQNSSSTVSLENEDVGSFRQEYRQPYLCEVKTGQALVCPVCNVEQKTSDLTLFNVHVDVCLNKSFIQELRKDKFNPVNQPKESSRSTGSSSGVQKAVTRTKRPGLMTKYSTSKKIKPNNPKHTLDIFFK
Procedure, shortened: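 Fluorescent qHTS in 1536-well format: enzyme (10 nM) and compound sat 15 min at room temperature before 50 nM substrate (final) was added. Signal taken at 0 and 10 min; no-enzyme buffer wells were negative controls.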
% is set by controls: 0 for no effect and ±100 for the full control effect; potency is the fitted concentration of half-maximal effect; tags give direction and shape of the fitted curve.

Structure (SMILES)	Potency	activity, negative = inhibition
COc1ccc(O)c(/C=N/NC(=O)c2ccc(CSc3nc(C)cc(C)n3)cc2)c1	inconclusive: 89.1 µM [inhibitor, single point]	
Cc1nc2c(C(=O)NCCc3ccc(Cl)cc3)c[nH]n2c(=O)c1Cc1ccc(Cl)cc1	inconclusive: 89.1 µM [inhibitor, partial curve, poor fit]	
Cc1cc(-c2ccccc2)nc2cc(C(=O)NCc3ccco3)nn12	inconclusive: 89.1 µM [inhibitor, single point]	
C[C@H](CCC(=O)NCC(=O)O)C1CC[C@H]2C3CC[C@@H]4C[C@H](O)CC[C@]4(C)C3C[C@H](O)[C@]12C (some centres not stated)		inactive: 5.26% [at 19.4 µM]
CS(=O)(=O)N1Cc2ccccc2CC1C(=O)OCC(=O)Nc1ccc2ccccc2c1 (configuration not stated)	inconclusive: 89.1 µM [inhibitor, single point]	
O=C(O)c1ccc(/C=C2\SC(=S)N(NC(=O)c3ccccc3)C2=O)cc1	inconclusive: 89.1 µM [inhibitor, partial curve, poor fit]	
C=C1CC[C@@H]2[C@](C)(CCC[C@@]2(C)/C=C/[C@@H](O)C(C)(C)O)[C@H]1CC(=O)NCCS(=O)(=O)O	inconclusive: 79.4 µM [inhibitor, single point]	
O=C(O)C1C2C=CC(C2)C1C(=O)NCc1ccco1 (configuration not stated)	inconclusive: 89.1 µM [inhibitor, partial curve, poor fit]	
CC[n+]1c(/C=C/c2ccc(OC)c(OC)c2)ccc2ccccc21	inactive	
CCOC(=O)N1CCN(CC(=O)Nc2nc3ccccc3s2)CC1	inactive	
CC1OC(OCC2OC(Oc3c(-c4ccc(O)c(O)c4)oc4cc(O)cc(O)c4c3=O)C(O)C(O)C2O)C(O)C(O)C1O (configuration not stated)	active: 6.31 µM	
O=C(Nc1ccccc1C(F)(F)F)NC1(C(=O)N2CCOCC2)CCCCC1	active: 50.1 µM	
COc1cc(/C=N/NC(=O)c2ccncc2)ccc1OCCN1CCCCC1	inconclusive: 100 µM [inhibitor, single point]	
O=[N+]([O-])c1ccc(C=NNC(=S)NN=Cc2ccc([N+](=O)[O-])cc2)cc1	active: 25.1 µM	
O=C(CCS(=O)(=O)c1ccc(Br)cc1)NCc1cccs1	inconclusive: 100 µM [inhibitor, single point]	
Cc1ccc(OCC(=O)c2ccc(Cl)s2)c([N+](=O)[O-])n1	inconclusive: 89.1 µM [inhibitor, single point]	
CC(C)n1c(=O)c2c(O)cc(=O)oc2c2ccccc21	inconclusive: 100 µM [inhibitor, single point]	
